PubChem BioAssay AID686979 (National Center for Advancing Translational Sciences (NCATS), 2013)
Several values for one entry are separate records, joined by “and”; a condition that tells them apart may be missing. Identical values can stand only once. The whole screen tested about 420,000 compounds, of which about 50,000 (12%) were called active. Inconclusive means that the source gave no clear call. Such entries were picked first, then a sample of the others. The call rests on the fitted dose curve; in most records, active means well fitted inhibition curve with a large enough effect; inconclusive means small, poorly fitted or top-dose-only effect; inactive means flat fitted curve, though single readings scatter. Potencies beside an inconclusive call are fits to weak or partial responses and may not hold up. Where a SMILES comes first, the peptide text is derived from it. The star is where a group is joined. Boc = CC(C)(C)OC(=O)*; Bn = c1ccc(C*)cc1

Experiment: qHTS for Inhibitors of human tyrosyl-DNA phosphodiesterase 1 (TDP1): qHTS in cells in presence of CPT; further: nearly all actives have a fitted effect of over 55% in size
Details: chicken DT40 Tdp1-/-;hTDP1 cells + 20 nM CPT, ATP luminescence, 48 h; activity change, negative = growth inhibition: at 46.2 µM (top of the series)
How it was run: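 Chicken DT40 Tdp1-/- cells stably complemented with human TDP1 were seeded at 400 cells/well in medium containing 20 nM camptothecin, exposed to pin-transferred compounds, and grown at 37 °C for at least 48 hr. Viability was read as ATP luminescence.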
On the % scale 0 is the no-effect control and ±100 the full control effect; potency means the concentration at half of the fitted maximal effect; tags describe the fitted curve by direction and shape.

| SMILES | Potency | activity change, negative = growth inhibition |
| --- | --- | --- |
| CCOC(=O)c1ccc(NC(=O)CCS(=O)(=O)c2ccc(C)cc2)cc1 | active: 18.4 µM | – |
| Cc1cccc(-c2nc(CCNC(=O)c3ccco3)cs2)c1 | inconclusive: 16.4 µM [inhibitor, single point] and inconclusive: 18.4 µM [inhibitor, single point] | – |
| CCN(CC)c1ccc(/C=N/Nc2nc(C)cc(=O)[nH]2)cc1 | inconclusive: 3.66 µM [inhibitor, single point] | – |
| COc1ccc(NC(=O)CN2CCCN(S(=O)(=O)c3ccc(Br)cc3)CC2)c(OC)c1 | inconclusive: 29.1 µM [inhibitor, single point] | – |
| CC1=CC(C)(C)NC(=S)N1c1ccccc1C | inconclusive: 29.1 µM [inhibitor, single point] | – |
| CCOC(=O)Cc1csc(NS(=O)(=O)c2ccc(F)cc2)n1 | inconclusive: 29.1 µM [inhibitor, single point] | – |
| CN(c1ccccc1)S(=O)(=O)c1cccc(C(=O)OCC(=O)NCc2ccco2)c1 | inconclusive: 29.1 µM [inhibitor, single point] | – |
| CC(=O)Nc1ccc(S(=O)(=O)NNC(=O)COc2ccc(C(C)(C)C)cc2)cc1 | inconclusive: 18.4 µM [inhibitor, single point] | – |
| Cc1nn(CC(=O)Nc2ccc(C#N)cc2)c(C)c1[N+](=O)[O-] | inconclusive: 18.4 µM [inhibitor, partial curve, poor fit] | – |
| Cc1cc(NC(=O)CN2CCCC2c2nc3ccccc3s2)no1 (configuration not stated) | inconclusive: 8.2 µM [inhibitor, partial curve] | – |
| CCOc1ccc(Oc2ccccc2NC(=O)CCNC(C)=O)cc1 | – | inactive: -5.88% |
| C[C@H](CO)N1C[C@H](C)[C@@H](CN(C)C(=O)Nc2ccc(C(F)(F)F)cc2)Oc2ccc(NS(=O)(=O)c3ccccc3)cc2C1=O | active: 3.66 µM | – |
| O=C(c1ccc2c(c1)N(Cc1ccccc1)C(=O)CS2)N1CCOCC1 | – | inactive: 1.31% |
| Cc1ccccc1-c1nnc(CN2CCN(c3cccc(C)c3C)CC2)o1 | – | inactive: -20.3% |
| Brc1ccc(-c2nnc3sc(CN4CCCCC4)cn23)cc1 | – | inactive: -8.81% |
| O=C(CCC(=O)N1CCN(c2ccc(O)cc2)CC1)c1cccs1 | inconclusive: 16.4 µM [inhibitor, single point] | – |
| Cc1ccc(NC(=O)CSc2nnc(C)n3c2cc2sccc23)c(C)c1 | – | inactive: -20.7% |
| CCOc1ccccc1NC(=O)CSc1nnc(N)s1 | – | inactive: -22.8% |
| Cc1cc(CSc2ccccc2)ccc1NC(=O)c1ccc(Br)cc1 | – | inactive: -8.99% |
| Cc1ccc(S(=O)(=O)N(CCC(=O)NCC(c2ccccc2)N(C)C)c2ccccc2)cc1 (configuration not stated) | inconclusive: 29.1 µM [inhibitor, single point] | – |
| COC(=O)c1cc(C)nc2c1C(=O)C(=O)C=C2N1CCOCC1 | active: 3.26 µM | – |
| CCCN1C(=O)c2[nH]nc(-c3ccccc3O)c2C1c1cccc(OCc2ccccc2)c1 (configuration not stated) | active: 20.6 µM | – |
| COc1cccc(NC(=O)CSc2nc3c([nH]c4ccccc43)c(=O)n2-c2ccccc2)c1 | inconclusive: 18.4 µM [inhibitor, single point] | – |
| O=S1(=O)CCO[C@H]2CCCC[C@@H]2N1Cc1cccc(F)c1 | – | inactive: -28.6% |

| SMILES | Potency | activity change, negative = growth inhibition |
| --- | --- | --- |
| CN(CC(=O)Nc1ccccc1Br)CC(=O)NC(c1ccccc1)c1ccccc1 | inconclusive: 10.3 µM [inhibitor, partial curve] | – |
| COc1cc(NC(=O)C2CC(c3ccccc3O)=NO2)c(OC)cc1Cl (configuration not stated) | – | inactive: 22.2% |
| COc1ccc(-c2nc3c(Br)c(N)c(Br)cc3o2)cc1 | inconclusive: 23.1 µM [inhibitor, single point] | – |
| O=C(NCc1ccccc1Cl)c1cc2c(s1)-c1ccccc1SC2 | inconclusive: 25.9 µM [inhibitor, single point] | – |
| O=C(OCC(=O)c1c[nH]c2ccccc12)c1cc2ccccc2cc1O | – | inactive: -15.5% |
| Cc1cc(Br)cn2c(Cc3ccccc3)c(-c3ccco3)nc12 | inconclusive: 29.1 µM [inhibitor, single point] | – |
| CN1C2CCC1CC(NC(=O)CSCc1ccc(Cl)cc1Cl)C2 (configuration not stated) | inconclusive: 18.4 µM [inhibitor, single point] | – |
| N#CCC(=O)N/N=C/c1cc(Br)ccc1OCc1cccc2ccccc12 | inconclusive: 29.1 µM [inhibitor, single point] | – |
| O=C(CCCc1nc2ccccc2s1)Nc1nccs1 | – | inactive: 4.77% |
| O=C1C(Cl)=C(NCCc2ccccc2)C(=O)N1CCc1ccccc1 | – | inactive: -5.13% |
| CSc1ccc(CCNC(=O)CS(=O)(=O)Cc2nc(-c3ccccc3F)oc2C)cc1 | – | inactive: -0.97% |
| CCn1nnnc1SCC(=O)c1cc(OC)ccc1OC | – | inactive: -4.83% |
| Cc1ccc(OCC(=O)N/N=C/c2cn[nH]c2-c2ccc(Cl)c(Cl)c2)cc1 | inconclusive: 16.4 µM [inhibitor, single point] | – |
| CC1=CC=CC2=NC(=O)CC(C)(C(=O)O)N12 (configuration not stated) | – | inactive: 2.13% |
| COC(=O)C1=C(C)N(C(C)c2ccccc2)C(=O)/C1=C\c1ccco1 (configuration not stated) | inconclusive: 18.4 µM [inhibitor, single point] | – |
| COc1ccc(C(=O)N(C)Cc2ccc(C)o2)cc1OC1CCN(C(C)=O)CC1 | inconclusive: 29.1 µM [inhibitor, single point] | – |
| COc1ccc([N+](=O)[O-])cc1NCc1c(F)cccc1F | – | inactive: -2.25% |
| CN(C)c1ccc(CNC(=O)C2(C)Cc3c(-c4ccc(N(C)C)cc4)ccnc3O2)cc1 (configuration not stated) | inconclusive: 25.9 µM [inhibitor, single point] | – |
| CCC(=O)Nc1ccccc1-c1nc2ccccc2n(CC(=O)c2ccc(C)c(C)c2)c1=O | inconclusive: 29.1 µM [inhibitor, single point] | – |
| CCCNC(=S)NC1CC2CCC(C1)N2Cc1ccccc1 (configuration not stated) | inconclusive: 23.1 µM [inhibitor, single point] | – |
| COc1cc(C(=O)NCC(c2cccnc2)N2CCc3ccccc3C2)cc(OC)c1OC (configuration not stated) | inconclusive: 23.1 µM [inhibitor, single point] | – |
| COc1ccc(S(=O)(=O)n2cnc3cc(C)c(C)cc32)cc1C | active: 11.6 µM | – |
| O=c1oc2ccccc2nc1/C=C(O)/C=C\c1ccccc1 | active: 14.6 µM | – |
| S=c1[nH]nc(-c2ccc(Br)cc2)n1Cc1ccccc1 | inconclusive: 32.6 µM [inhibitor, single point] | – |

| SMILES | Potency | activity change, negative = growth inhibition |
| --- | --- | --- |
| CCN(CC(=O)Nc1ccccc1C(F)(F)F)C(=O)c1ccc(-n2nc(C)c(CCC(=O)OC)c2C)cc1 | inconclusive: 25.9 µM [inhibitor, single point] | – |
| CC(=O)CCc1oc2ccc(C)cc2c1Cc1ccccc1 | – | inactive: 15.1% |
| COc1ccccc1NC(=O)C1CCCN(S(=O)(=O)c2ccccc2)C1 (configuration not stated) | inconclusive: 29.1 µM [inhibitor, single point] | – |
| CCOc1ccc2ncc(S(=O)(=O)c3ccc(C)cc3)c(N3CCC4(CC3)OCCO4)c2c1 | inconclusive: 25.9 µM [inhibitor, single point] | – |
| CN(C)c1ccc(-c2csc(C(O)(c3ccccc3)C(F)(F)F)n2)cc1 (configuration not stated) | active: 10.3 µM | – |
| Cc1ccc(CN(C(=O)COc2ccc(Cl)c(C)c2)c2ccccn2)o1 | inconclusive: 29.1 µM [inhibitor, single point] | – |
| CC(C)CC(NC(=O)C(NC(=O)C(Cc1ccc(OCc2ccccc2)cc1)NC(=O)OC(C)(C)C)C(C)C)C(N)=O (stereo not drawn) (Boc-Tyr(Bn)-Val-Leu-NH2; configuration not given here) | inconclusive: 29.1 µM [inhibitor, single point] | – |
| COc1ccc(-c2csc(NC(=O)C3CC(=O)N(Cc4ccco4)C3)n2)cc1 (configuration not stated) | inconclusive: 29.1 µM [inhibitor, single point] | – |
| Cc1ccc(-c2cc(-c3ccc4c(c3)NC(=O)CO4)nc3c2COc2ccc(C)cc2-3)cc1 | inconclusive: 5.17 µM [inhibitor, full curve, poor fit] | – |
| Cc1csc(NC(=O)c2ccccc2)n1 | – | inactive: -1.28% |
| CC(C)C[C@@H](COCc1cccc(Cl)c1)N1CCN(C(=O)c2ccc(C(F)(F)F)cc2)CCC1=O | inconclusive: 18.4 µM [inhibitor, single point] | – |
| Cc1cccc(C(=O)NCCCNC(=O)c2ccccn2)c1 | – | inactive: 6.08% |
| O=C(c1ccc2c(=O)n(CCc3ccccc3)c(=O)[nH]c2c1)N1CCN(c2ccccc2)CC1 | inconclusive: 5.8 µM [inhibitor, full curve] | – |
| Cc1cccc(C)c1NC(=O)C1c2ccccc2OCC(=O)N1C1CC1 (configuration not stated) | – | inactive: 1.64% |
| COc1ccc2c(c1)c(CC(=O)O)c(C)n2Cc1ccc(Cl)cc1 | – | inactive: -10.7% |
| COc1ccc(OC)c(NC(=O)C2CC(=O)N(c3ccc(Br)cc3)C2)c1 (configuration not stated) | – | inactive: -4.65% |
| COC(=O)c1ccc(C(=O)OC)c(NC(=S)N2CCOCC2)c1 | – | inactive: 1.09% |
| CCOC(=O)[C@H]1[C@H]2COc3ccc(Cl)cc3[C@@H]2N2C(=O)CN(Cc3ccc(OC)cc3)C(=O)[C@@]12C | inconclusive: 20.6 µM [inhibitor, single point] | – |
| COCCNC(=O)CC(NS(=O)(=O)c1ccc(C)cc1)c1ccco1 (configuration not stated) | – | inactive: -0.895% |
| Cc1ccc(NC(=O)CCC(=O)N/N=C/c2ccccc2O)cc1 | active: 10.3 µM | – |
| O=C(C1COc2ccccc2O1)N1CCN(c2ccc(C(F)(F)F)cn2)CC1 (configuration not stated) | – | inactive: -5.6% |
| CC1=C(C(=O)Nc2ccccc2C)C(c2ccc(C)o2)NC(=S)N1 (configuration not stated) | – | inactive: -13.7% |
| COc1ccc(OC)c(CNC(=O)c2cc3cc4ccc(OC)cc4nc3o2)c1 | – | inactive: 27.2% |
| O=C(COc1ccccc1)Nc1cccc(-c2ccc(N3CCOCC3)nn2)c1 | inconclusive: 29.1 µM [inhibitor, single point] | – |
